# The other results are listed elsewhere or left out. Most values come without repeats; read them as rough.
# System: COLO792
# Assay: cell count relative to DMSO control; melanoma cells; higher = more viable cells
# Settings: library dose: standard library concentration; 72 h
# 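Further: cells treated in 1,536-well plates, then fixed and DAPI-stained, with nuclei counted from automated high-throughput microscope images.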
row,SMILES,cell count [%]
1,"CCCCCCCCc1ccc(CCC(N)(CO)CO)cc1 [fingolimod] + Cc1cc([N+](=O)[O-])ccc1NS(=O)(=O)c1cc(Cl)ccc1Cl [FH535] (first compound 10 µM, partner dose 5 µM)",26.7
2,"CN(NC(=O)CC(=O)NN(C)C(=S)c1ccccc1)C(=S)c1ccccc1 + COc1cc2c(Oc3ccc4[nH]c(C)cc4c3F)ncnc2cc1OCCCN1CCCC1 [cediranib] (first compound 0.03 µM, partner dose 2 µM)",18.9
3,"CCc1ccc(CCOc2ccc(CC3SC(=O)NC3=O)cc2)nc1 (stereo unspecified) [pioglitazone] + O=C1NC(=O)/C(=C/c2ccc(-c3ccc(F)cc3O)o2)S1 [AS252424] (first compound 10 µM, partner dose 5 µM)",77.1
4,"Cc1ccc(NC(=O)c2cccc(N(C)C)c2)cc1NC(=O)c1ccc(O)cc1 + CCCCCCCCCCCC1=C(O)C(=O)C=C(O)C1=O [Embelin] (first compound 10 µM, partner dose 6 µM)",76.5
5,"Cc1ccc(NC(=O)c2cccc(N(C)C)c2)cc1NC(=O)c1ccc(O)cc1 + COc1ccc2c(c1)CCC1C2CCC2(C)C(NCCCCCCN3C(=O)C=CC3=O)CCC12 [U73122] (first compound 10 µM, partner dose 2 µM)",118
6,"CC(C)(C)c1cnc(CSc2cnc(NC(=O)C3CCNCC3)s2)o1 + CN(NC(=O)CC(=O)NN(C)C(=S)c1ccccc1)C(=S)c1ccccc1 [STA4783] (first compound 0.05 µM, partner dose 0.03 µM)",27

# From the supplement of paper PMC4604168 (melanoma cell lines)
